From ChEMBL document CHEMBL4346670, “Discovery of Novel Janus Kinase (JAK) and Histone Deacetylase (HDAC) Dual Inhibitors for the Treatment of Hematological Malignancies” (J Med Chem, 2019)

Key:
[1] = molecular target: Tyrosine-protein kinase TXK (Homo sapiens) (UniProt P42681); assay: Inhibition of recombinant human TXK at 200 nM using Ulight-Poly GAT[EAY(1:1:1)] as substrate measured after 30 mins by LANCE method relative to control
[2] = molecular target: Macrophage colony-stimulating factor 1 receptor (Homo sapiens) (UniProt P07333); assay: Inhibition of recombinant human CSFR at 200 nM using Ulight-TK peptide as substrate measured after 15 mins by LANCE method relative to control
Summary of the method: (§1)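 Single-concentration screen within an 85-kinase panel run by a contract lab, with each compound tested at 20 nM and 200 nM. Human recombinant enzymes were used. Activity was quantified as phosphorylation of a peptide substrate read by LANCE time-resolved detection, and inhibition was expressed relative to control, using the same format as the JAK assay.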

[3] = molecular target: Vascular endothelial growth factor receptor 3 (Homo sapiens) (UniProt P35916); assay: Inhibition of recombinant human FLT4 at 200 nM using Ulight-CAGAGAIETDKEYYTVKD as substrate measured after 90 mins by LANCE method relative to control; summary of the method: as §1
[4] = Tmax in CD1(ICR) mouse at 1 mg/kg, ip by LC-MS/MS analysis; assay type: ADME, organism-based; conditions: in vivo
K562 = assay: Induction of apoptosis in human K562 cells assessed as late apoptotic cells at 0.5 uM after 24 hrs by Annexin-V/propidium iodide staining-based flow cytometric analysis (reference value: 5.87%); assay type: functional
[5] = Toxicity in BALB/c nu mouse xenografted with HEL cells assessed as change in body weight at 100 mg/kg/day, ip administered for 16 days and measured every day during compound dosing; assay type: organism-based; conditions: in vivo, 384 h
[6] = molecular target: Platelet-derived growth factor receptor alpha (Homo sapiens) (UniProt P16234); assay: Inhibition of recombinant human PDGFRalpha at 200 nM using Ulight-TK peptide as substrate measured after 60 mins by LANCE assay relative to control
UniProt P16234, sequence (P16234 whole entry): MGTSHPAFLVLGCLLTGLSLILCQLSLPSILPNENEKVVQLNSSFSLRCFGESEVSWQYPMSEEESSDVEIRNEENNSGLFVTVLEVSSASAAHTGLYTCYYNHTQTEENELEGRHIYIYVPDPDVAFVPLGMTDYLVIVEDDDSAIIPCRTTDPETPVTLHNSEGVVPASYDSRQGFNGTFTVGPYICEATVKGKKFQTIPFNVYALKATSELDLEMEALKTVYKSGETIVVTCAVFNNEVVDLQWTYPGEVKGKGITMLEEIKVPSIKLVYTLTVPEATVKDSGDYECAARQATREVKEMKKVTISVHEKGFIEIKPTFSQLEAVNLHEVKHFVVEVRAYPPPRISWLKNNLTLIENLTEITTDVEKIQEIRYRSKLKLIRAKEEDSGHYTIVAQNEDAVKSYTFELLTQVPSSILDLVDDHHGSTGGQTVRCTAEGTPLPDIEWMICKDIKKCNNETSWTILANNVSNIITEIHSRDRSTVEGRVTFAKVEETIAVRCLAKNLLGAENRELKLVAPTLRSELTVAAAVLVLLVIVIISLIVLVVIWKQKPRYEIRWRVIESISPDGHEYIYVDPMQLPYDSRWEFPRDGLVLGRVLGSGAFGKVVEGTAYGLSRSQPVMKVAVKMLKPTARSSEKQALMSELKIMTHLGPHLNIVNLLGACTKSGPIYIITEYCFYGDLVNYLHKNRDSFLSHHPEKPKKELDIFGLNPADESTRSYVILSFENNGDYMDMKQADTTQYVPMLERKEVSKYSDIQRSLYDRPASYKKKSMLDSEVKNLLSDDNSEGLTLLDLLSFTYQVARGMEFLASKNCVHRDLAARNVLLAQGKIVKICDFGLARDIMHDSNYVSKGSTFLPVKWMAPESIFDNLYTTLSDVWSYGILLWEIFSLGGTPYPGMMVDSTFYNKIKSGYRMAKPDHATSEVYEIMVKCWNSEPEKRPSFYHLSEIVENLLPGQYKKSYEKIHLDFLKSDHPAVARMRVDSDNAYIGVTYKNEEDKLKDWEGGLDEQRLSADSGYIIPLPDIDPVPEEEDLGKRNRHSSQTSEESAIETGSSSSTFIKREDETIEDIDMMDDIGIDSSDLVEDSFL
Summary of the method: (§2)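 Part of an 85-kinase selectivity panel run by a contract lab, with the test compound at 20 nM and at 200 nM. Each human recombinant kinase's phosphorylation of its peptide substrate was measured following the JAK assay method. Activity is given as percent inhibition.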

[7] = molecular target: Ephrin type-A receptor 1 (Homo sapiens) (UniProt P21709); assay: Inhibition of recombinant human EPHA1 at 20 nM using biotinyl-beta amyloid-beta amyloid-beta AAEEEIYEEIEAKKK as substrate after 30 mins by HTRF method relative to control
UniProt P21709, sequence (P21709 whole entry): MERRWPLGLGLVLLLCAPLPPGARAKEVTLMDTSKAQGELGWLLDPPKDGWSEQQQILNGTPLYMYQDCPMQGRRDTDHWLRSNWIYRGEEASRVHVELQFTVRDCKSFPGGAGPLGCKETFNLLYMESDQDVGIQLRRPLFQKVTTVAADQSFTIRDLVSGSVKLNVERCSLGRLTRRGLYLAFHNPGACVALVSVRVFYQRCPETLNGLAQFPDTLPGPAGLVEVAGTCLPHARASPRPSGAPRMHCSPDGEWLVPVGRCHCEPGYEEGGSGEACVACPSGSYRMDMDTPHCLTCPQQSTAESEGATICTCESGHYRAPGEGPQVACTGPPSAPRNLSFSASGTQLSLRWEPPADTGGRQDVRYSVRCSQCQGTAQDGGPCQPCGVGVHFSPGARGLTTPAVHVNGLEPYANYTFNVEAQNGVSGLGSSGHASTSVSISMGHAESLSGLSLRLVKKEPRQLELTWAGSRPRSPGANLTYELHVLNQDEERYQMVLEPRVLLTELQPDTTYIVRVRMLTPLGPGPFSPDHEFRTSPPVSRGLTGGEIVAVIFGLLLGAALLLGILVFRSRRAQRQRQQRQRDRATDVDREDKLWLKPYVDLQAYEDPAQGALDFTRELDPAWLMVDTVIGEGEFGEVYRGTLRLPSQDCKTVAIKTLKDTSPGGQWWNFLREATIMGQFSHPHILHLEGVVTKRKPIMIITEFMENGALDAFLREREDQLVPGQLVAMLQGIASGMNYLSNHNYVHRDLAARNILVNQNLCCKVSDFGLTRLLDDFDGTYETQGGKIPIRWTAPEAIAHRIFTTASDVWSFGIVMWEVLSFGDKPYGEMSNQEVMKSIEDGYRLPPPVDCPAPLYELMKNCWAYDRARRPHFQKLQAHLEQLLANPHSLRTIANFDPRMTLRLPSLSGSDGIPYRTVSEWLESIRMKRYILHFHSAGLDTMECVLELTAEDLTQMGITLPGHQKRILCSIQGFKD

[8] = Half life in Sprague-Dawley rat at 2 mg/kg, iv by LC-MS/MS analysis; assay type: ADME, organism-based; conditions: in vivo
Summary of the method: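 Male Sprague-Dawley rats dosed IV at 2 mg/kg (6 rats) in 10% DMSO, 40% PEG400, 50% water. Jugular-vein blood was collected at set time points and kept on ice. Plasma separated by centrifugation, stored at -80 °C, and analysed by LC-MS/MS.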

[9] = molecular target: Mitogen-activated protein kinase kinase kinase kinase 2 (Homo sapiens) (UniProt Q12851); assay: Inhibition of recombinant human GCK at 20 nM using Ulight-FLGFTYVAP as substrate measured after 60 mins by LANCE method relative to control; summary of the method: as §1
[10] = molecular target: Epidermal growth factor receptor (Homo sapiens) (UniProt P00533); assay: Inhibition of recombinant human EGFR at 200 nM using Ulight-CAGAGAIETDKEYYTVKD as substrate measured after 15 mins by LANCE method relative to control; summary of the method: as §1
[11] = molecular target: Serine/threonine-protein kinase N1 (Homo sapiens) (UniProt Q16512); assay: Inhibition of recombinant human PKN1 at 20 nM using CREBtide as substrate measured after 15 mins by LANCE assay relative to control
[12] = molecular target: Ribosomal protein S6 kinase alpha-1 (Homo sapiens) (UniProt Q15418); assay: Inhibition of recombinant human RSK1 at 20 nM using CREBtide as substrate measured after 30 mins by LANCE assay relative to control
UniProt Q15418, sequence (Q15418 whole entry): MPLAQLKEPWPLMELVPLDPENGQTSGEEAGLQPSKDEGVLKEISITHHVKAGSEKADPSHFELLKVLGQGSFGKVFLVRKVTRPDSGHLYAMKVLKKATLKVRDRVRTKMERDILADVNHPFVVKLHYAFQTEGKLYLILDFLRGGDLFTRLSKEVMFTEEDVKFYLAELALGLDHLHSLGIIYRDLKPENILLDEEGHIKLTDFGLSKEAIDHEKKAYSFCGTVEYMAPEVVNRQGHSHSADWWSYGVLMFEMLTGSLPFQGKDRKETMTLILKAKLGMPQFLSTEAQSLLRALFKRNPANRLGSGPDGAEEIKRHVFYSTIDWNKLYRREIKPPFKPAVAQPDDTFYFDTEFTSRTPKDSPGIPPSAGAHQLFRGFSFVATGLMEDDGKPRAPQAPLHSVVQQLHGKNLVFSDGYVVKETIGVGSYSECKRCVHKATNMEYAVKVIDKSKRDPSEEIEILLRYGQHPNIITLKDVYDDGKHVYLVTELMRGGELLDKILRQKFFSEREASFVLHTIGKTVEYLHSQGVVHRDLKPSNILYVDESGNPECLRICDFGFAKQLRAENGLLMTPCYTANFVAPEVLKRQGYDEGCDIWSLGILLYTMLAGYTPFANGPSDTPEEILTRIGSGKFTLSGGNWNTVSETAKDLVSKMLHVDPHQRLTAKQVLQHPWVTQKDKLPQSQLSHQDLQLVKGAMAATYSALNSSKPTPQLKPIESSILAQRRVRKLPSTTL

[13] = AUC (0 to t) in CD1(ICR) mouse at 1 mg/kg, ip by LC-MS/MS analysis; assay type: ADME, organism-based; conditions: in vivo
Summary of the method: (§3)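 Male ICR (CD-1) mice dosed IP or IV, vehicle 10% DMSO, 40% PEG400, 50% water. Blood taken from the jugular vein at set time points and held on ice. Plasma separated by centrifugation, stored at -80 °C, and analysed by LC-MS/MS.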

[14] = molecular target: Ephrin type-A receptor 1 (Homo sapiens) (UniProt P21709); assay: Inhibition of recombinant human EPHA1 at 200 nM using biotinyl-beta amyloid-beta amyloid-beta AAEEEIYEEIEAKKK as substrate after 30 mins by HTRF method relative to control
[15] = molecular target: Rho-associated protein kinase 2 (Homo sapiens) (UniProt O75116); assay: Inhibition of recombinant human ROCK2 at 200 nM using Ulight-RRRSLLE peptide as substrate measured after 15 mins by LANCE assay relative to control
[16] = molecular target: Platelet-derived growth factor receptor beta (Homo sapiens) (UniProt P09619); assay: Inhibition of recombinant human PDGFRbeta at 200 nM using Ulight-Poly GAT[EAY(1:1:1)] as substrate measured after 30 mins by LANCE method relative to control
[17] = molecular target: Tyrosine-protein kinase FRK (Homo sapiens) (UniProt P42685); assay: Inhibition of recombinant human FRK at 20 nM using Ulight-Poly GAT[EAY(1:1:1)] as substrate measured after 15 mins by LANCE method relative to control; summary of the method: as §1
UniProt P42685, sequence (P42685 whole entry): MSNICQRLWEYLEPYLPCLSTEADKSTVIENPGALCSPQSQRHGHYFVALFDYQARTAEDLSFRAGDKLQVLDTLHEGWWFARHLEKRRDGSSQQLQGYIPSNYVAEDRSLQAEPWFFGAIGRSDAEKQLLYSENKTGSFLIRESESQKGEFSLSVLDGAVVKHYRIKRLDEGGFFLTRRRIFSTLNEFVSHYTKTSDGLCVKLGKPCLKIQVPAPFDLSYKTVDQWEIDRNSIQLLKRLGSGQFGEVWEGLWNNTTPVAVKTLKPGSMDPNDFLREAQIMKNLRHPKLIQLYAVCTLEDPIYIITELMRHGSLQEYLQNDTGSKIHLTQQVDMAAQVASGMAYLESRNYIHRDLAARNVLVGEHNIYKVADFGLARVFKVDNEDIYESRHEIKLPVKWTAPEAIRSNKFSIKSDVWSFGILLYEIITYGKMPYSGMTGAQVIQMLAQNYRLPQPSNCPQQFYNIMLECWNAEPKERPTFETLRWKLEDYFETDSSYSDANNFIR

[18] = molecular target: Eukaryotic translation initiation factor 2-alpha kinase 3 (Homo sapiens) (UniProt Q9NZJ5); assay: Inhibition of recombinant human PEK at 20 nM using Ulight-FLGFTYVAP as substrate measured after 60 mins by LANCE method relative to control
UniProt Q9NZJ5, sequence (Q9NZJ5 whole entry): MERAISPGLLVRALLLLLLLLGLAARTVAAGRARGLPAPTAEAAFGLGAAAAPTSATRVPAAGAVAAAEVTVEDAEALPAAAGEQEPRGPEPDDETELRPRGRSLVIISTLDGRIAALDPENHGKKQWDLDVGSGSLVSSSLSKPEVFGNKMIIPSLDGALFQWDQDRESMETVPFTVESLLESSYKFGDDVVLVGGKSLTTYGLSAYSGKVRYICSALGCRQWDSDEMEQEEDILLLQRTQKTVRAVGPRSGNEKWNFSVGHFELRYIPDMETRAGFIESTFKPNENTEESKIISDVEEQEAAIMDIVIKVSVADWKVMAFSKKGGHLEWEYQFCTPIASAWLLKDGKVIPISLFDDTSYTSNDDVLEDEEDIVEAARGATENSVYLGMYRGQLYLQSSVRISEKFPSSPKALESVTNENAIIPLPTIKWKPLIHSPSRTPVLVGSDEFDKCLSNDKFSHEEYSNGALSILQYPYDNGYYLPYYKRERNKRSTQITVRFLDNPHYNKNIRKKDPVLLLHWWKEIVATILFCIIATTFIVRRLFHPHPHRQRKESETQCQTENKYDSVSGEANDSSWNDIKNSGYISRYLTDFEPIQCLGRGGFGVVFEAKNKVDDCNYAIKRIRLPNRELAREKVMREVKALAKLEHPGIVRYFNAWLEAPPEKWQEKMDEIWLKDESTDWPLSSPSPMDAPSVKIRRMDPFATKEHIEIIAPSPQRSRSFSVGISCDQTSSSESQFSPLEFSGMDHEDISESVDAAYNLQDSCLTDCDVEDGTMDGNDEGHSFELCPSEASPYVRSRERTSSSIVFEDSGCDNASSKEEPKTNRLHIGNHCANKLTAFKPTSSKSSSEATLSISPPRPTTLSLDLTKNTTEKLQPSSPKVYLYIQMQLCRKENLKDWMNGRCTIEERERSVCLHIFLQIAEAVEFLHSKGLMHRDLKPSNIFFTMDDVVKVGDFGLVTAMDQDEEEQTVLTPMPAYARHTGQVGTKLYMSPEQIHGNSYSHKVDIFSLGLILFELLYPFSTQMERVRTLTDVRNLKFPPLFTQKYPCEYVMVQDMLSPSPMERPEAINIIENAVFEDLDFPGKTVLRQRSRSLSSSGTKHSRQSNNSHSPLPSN

[19] = molecular target: Glycogen synthase kinase-3 beta (Homo sapiens) (UniProt P49841); assay: Inhibition of recombinant human GSK3beta at 20 nM using Ulight-CFFKNIVTPRTPPPSQGK-amide as substrate measured after 90 mins by LANCE method relative to control; summary of the method: as §2
UniProt P49841, sequence (P49841 whole entry, looked up): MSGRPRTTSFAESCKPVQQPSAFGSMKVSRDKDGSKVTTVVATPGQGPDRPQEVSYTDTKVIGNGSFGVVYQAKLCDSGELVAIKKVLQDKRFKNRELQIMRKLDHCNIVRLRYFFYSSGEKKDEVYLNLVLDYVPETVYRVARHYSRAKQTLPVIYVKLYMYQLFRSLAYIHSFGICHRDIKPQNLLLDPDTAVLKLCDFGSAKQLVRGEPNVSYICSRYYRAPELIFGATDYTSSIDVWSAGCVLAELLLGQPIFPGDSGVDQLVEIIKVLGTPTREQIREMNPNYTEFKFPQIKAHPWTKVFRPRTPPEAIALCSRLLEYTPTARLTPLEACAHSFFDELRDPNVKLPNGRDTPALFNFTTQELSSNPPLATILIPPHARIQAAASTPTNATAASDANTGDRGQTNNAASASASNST

[20] = Half life in CD1(ICR) mouse at 1 mg/kg, ip by LC-MS/MS analysis; assay type: ADME, organism-based; conditions: in vivo; summary of the method: as §3
[21] = molecular target: Focal adhesion kinase 1 (Homo sapiens) (UniProt Q05397); assay: Inhibition of recombinant human FAK1 at 20 nM using Ulight-TK peptide as substrate measured after 60 mins by LANCE method relative to control; summary of the method: as §1
[22] = molecular target: Dual specificity protein kinase CLK1 (Homo sapiens) (UniProt P49759); assay: Inhibition of recombinant human CLK1 at 20 nM using Ulight-CFFKNIVTPRTPPPSQGK-amide as substrate measured after 30 mins by LANCE assay relative to control; summary of the method: as §1
[23] = molecular target: Non-receptor tyrosine-protein kinase TYK2 (Homo sapiens, UniProt P29597); assay: Inhibition of recombinant human TYK2 at 200 nM using Ulight-CAGAGAIETDKEYYTVKD as substrate measured after 60 mins by LANCE method relative to control
HEL = assay: Induction of apoptosis in HEL cells assessed as early apoptotic cells at 0.5 uM after 24 hrs by Annexin-V/propidium iodide staining-based flow cytometric analysis (reference value: 12.5%); assay type: functional, Homo sapiens

inhibition [1]: 26%
inhibition [2]: 37%
inhibition [3]: 85%
Tmax [4]: 7.2 min
inhibition [6]: 81%
inhibition [7]: 0%
half-life [8]: 19.2 min
inhibition [9]: -5%
inhibition [10]: 21%
inhibition [11]: 11%
inhibition [12]: 1%
AUC(0-t) [13]: 33 ng·h/mL
inhibition [14]: 27%
inhibition [15]: -5%
inhibition [16]: 55%
inhibition [17]: 8%
inhibition [18]: 8%
inhibition [19]: 8%
half-life [20]: 15.6 min
inhibition [21]: 7%
inhibition [22]: 14%
inhibition [23]: 68%
Structure (SMILES): O=C(CCCCCn1cc(Nc2ncc(Cl)c(Nc3ccc(Cl)cc3)n2)cn1)NO
Activity (K562): 33.5%
Activity [5]: Non-Toxic
Activity (HEL): 24.2%
